Assay results: patent publication US12564641B2 (EISAI R&D MANAGEMENT CO., LTD., priority 2019, dated 2026)

What was measured:
[1] = tested on: various cell lines (51 cell lines); assay: In vitro potency (IC50, Crystal Violet) in cell lines with varying mesothelin expression; assay type: cell-based
MSLN-negative cell lines = assay: In vitro cytotoxicity (IC50, Crystal Violet) on MSLN-negative cell lines (Example 11); assay type: cell-based; details: for IC50: read-out: In vitro cell based potency, IC50
Procedure: Plates were incubated at 37° C. 5% CO2 for an additional 5 days. […] Plates were read at 570 nm.

MSLN-positive cell lines = assay: In vitro cytotoxicity (IC50, Crystal Violet) on MSLN-positive cell lines (Example 11); details: for IC50: read-out: In vitro cell based potency, IC50
[2] = A431-K5 cells (MSLN MFI 1430.3)
[3] = Kuramochi cells (MSLN MFI 211.2)
[4] = NCI-H292 cells (MSLN MFI 108.6)
[5] = NCI-H1355-Sorted cells (MSLN MFI 32.7)
[6] = NCI-H1355 cells (MSLN MFI 11.5)
[7] = NCI-H1568/MSLN cells (MSLN MFI 4474)
[8] = NCI-H1573 cells (MSLN MFI 17.4)
[9] = NCI-H1650/MSLN cells (MSLN MFI 1865.5)
[10] = NCI-H1650 cells (MSLN MFI 31.5)
[11] = NCI-H2110 cells (MSLN MFI 112.2)
[12] = NCI-H2126 cells (MSLN MFI 73.6)
[13] = NCI-H1568/MSLN cells (MSLN MFI 4474.00)
[14] = OVCAR3-A1 cells (MSLN MFI 220.0)

B1: MORAb109 (DAR2) (conjugate)
heavy: QVQLVESGGGVVQPGRSLRLSCAASGIDLSSYAMSWVRQAPGKGLEWIGVIDISGNRFYADWVKGRFTISRDNSKNTLYLQMSSLRAEDTAVYYCARVDSRAWGPFNLWGQGTLVTVSS[skipping human IgG1 constant region]
light: DYQMTQSPSSLSASVGDRVTITCQASQSIFSYLAWYQQKPGKAPKLLIYDASDLASGVPSRFSGSGSGTDFTLTISSLQCEDAATYYCQQGYTRSDVDNAFGGGTKVEIKRTVAAPSVFIFPPSDEQLKSGTASVVCLLNNFYPREAKVQWKVDNALQSGNSQESVTEQDSKDSTYSLSSTLTLSKADYEKHKVYACEVTHQGLSSPVTKSFNRGEC
modifications: non-natural residues
- IC50 [1, 2]: 0.45 nM
- IC50 ([1]; A431 cells (MSLN MFI 5.6)): 71.5 nM
- IC50 ([1]; A549 cells (MSLN MFI 14.2)): 276 nM
- IC50 ([1]; BxPC3 cells (MSLN MFI 15.59)): 86.2 nM
- IC50 ([1]; CNE2 cells (MSLN MFI 147.7)): 69.5 nM
- IC50 ([1]; COV362 cells (MSLN MFI 113.5)): 193 nM
- IC50 ([1]; CaOV-3 cells (MSLN MFI 137.6)): 20.9 nM
- IC50 ([1]; Capan-2 cells (MSLN MFI 36)): 138 nM
- IC50 ([1]; EGI-1 cells (MSLN MFI 14.8)): 188 nM
- IC50 ([1]; H226 cells (MSLN MFI 725.3)): 7.46 nM
- IC50 ([1]; HAC-2 cells (MSLN MFI 172.3)): 228 nM
- IC50 ([1]; HCC1806 cells (MSLN MFI 189.3)): 35.5 nM
- IC50 ([1]; HEC-1-A cells (MSLN MFI 16.5)): 141 nM
- IC50 ([1]; HEC-1-B cells (MSLN MFI 16.9)): 66.3 nM
- IC50 ([1]; HEC-251 cells (MSLN MFI 53.3)): 67.2 nM
- IC50 ([1]; HK1 cells (MSLN MFI 39.2)): 198 nM
- IC50 ([1]; HNE-1-T1 cells (MSLN MFI 79.3)): 347 nM
- IC50 ([1]; HNE-1 cells (MSLN MFI 110.8)): 239 nM
- IC50 ([1]; HONE1 cells (MSLN MFI 108.6)): 198 nM
- IC50 ([1]; JIMT-1 cells (MSLN MFI 36.4)): 61.8 nM
- IC50 [1, 3]: 898 nM
- IC50 ([1]; MFE-280 cells (MSLN MFI 45.1)): 196 nM
- IC50 ([1]; MKN1 cells (MSLN MFI 22.06)): 20.1 nM
- IC50 ([1]; MKN7 cells (MSLN MFI 18.48)): 86.5 nM
- IC50 ([1]; MKN45 cells (MSLN MFI 57.94)): 100 nM
- IC50 ([1]; MKN74 cells (MSLN MFI 7.73)): 67 nM
- IC50 ([1]; NCI-H23 cells (MSLN MFI 4.42)): 66.7 nM
- IC50 [1, 4]: 147 nM
- IC50 ([1]; NCI-H322 cells (MSLN MFI 83.9)): 62.8 nM
- IC50 [1, 5]: 96.9 nM
- IC50 [1, 6]: 79.8 nM
- IC50 [1, 7]: 1.69 nM
- IC50 [1, 8]: 60.4 nM
- IC50 [1, 9]: 1 nM
- IC50 [1, 10]: 92.2 nM
- IC50 [1, 11]: 52.2 nM
- IC50 [1, 12]: 87.9 nM
- IC50 ([1]; NCI-N87 cells (MSLN MFI 125.8)): 14.7 nM
- IC50 ([1]; OVCAR3 A1 cells (MSLN MFI 220)): 0.005 nM
- IC50 ([1]; PC9 cells (MSLN MFI 11.24)): 85.1 nM
- IC50 ([1]; SNU216 cells (MSLN MFI 94.91)): 73.4 nM
- IC50 ([1]; SNU-245 cells (MSLN MFI 23.9)): 356 nM
- IC50 ([1]; SNU-478 cells (MSLN MFI 53.8)): 228 nM
- IC50 ([1]; SNU-1196 cells (MSLN MFI 40.2)): 128 nM
- IC50 ([1]; SUNE1 cells (MSLN MFI 212.4)): 77.8 nM
- IC50 ([1]; T-47D cells (MSLN MFI 4.4)): 95.9 nM

B2: MORAb109 (DAR6) (conjugate)
heavy: QVQLVESGGGVVQPGRSLRLSCAASGIDLSSYAMSWVRQAPGKGLEWIGVIDISGNRFYADWVKGRFTISRDNSKNTLYLQMSSLRAEDTAVYYCARVDSRAWGPFNLWGQGTLVTVSS[skipping human IgG1 constant region]
light: DYQMTQSPSSLSASVGDRVTITCQASQSIFSYLAWYQQKPGKAPKLLIYDASDLASGVPSRFSGSGSGTDFTLTISSLQCEDAATYYCQQGYTRSDVDNAFGGGTKVEIKRTVAAPSVFIFPPSDEQLKSGTASVVCLLNNFYPREAKVQWKVDNALQSGNSQESVTEQDSKDSTYSLSSTLTLSKADYEKHKVYACEVTHQGLSSPVTKSFNRGEC
- IC50 [1, 2]: 0.35 nM
- IC50 ([1]; A431 cells (MSLN MFI 5.6)): 14.2 nM
- IC50 ([1]; A549 cells (MSLN MFI 14.2)): 41.3 nM
- IC50 ([1]; AsPC1 cells (MSLN MFI 33.47)): 3.13 nM
- IC50 ([1]; BxPC3 cells (MSLN MFI 15.59)): 5.88 nM
- IC50 ([1]; CNE2 cells (MSLN MFI 147.7)): 1.64 nM
- IC50 ([1]; COV362 cells (MSLN MFI 113.5)): 45.3 nM
- IC50 ([1]; CaOV-3 cells (MSLN MFI 137.6)): 0.51 nM
- IC50 ([1]; Capan-2 cells (MSLN MFI 36)): 1.99 nM
- IC50 ([1]; EGI-1 cells (MSLN MFI 14.8)): 15.4 nM
- IC50 ([1]; H226 cells (MSLN MFI 725.3)): 0.13 nM
- IC50 ([1]; HAC-2 cells (MSLN MFI 172.3)): 320 nM
- IC50 ([1]; HCC1806 cells (MSLN MFI 189.3)): 0.24 nM
- IC50 ([1]; HEC-1-A cells (MSLN MFI 16.5)): 23.7 nM
- IC50 ([1]; HEC-1-B cells (MSLN MFI 16.9)): 1.6 nM
- IC50 ([1]; HEC-251 cells (MSLN MFI 53.3)): 0.67 nM
- IC50 ([1]; HK1 cells (MSLN MFI 39.2)): 5.88 nM
- IC50 ([1]; HNE-1-T1 cells (MSLN MFI 79.3)): 11.3 nM
- IC50 ([1]; HNE-1 cells (MSLN MFI 110.8)): 2.03 nM
- IC50 ([1]; HONE1 cells (MSLN MFI 108.6)): 5.88 nM
- IC50 ([1]; JIMT-1 cells (MSLN MFI 36.4)): 11.4 nM
- IC50 [1, 3]: 0.1 nM
- IC50 ([1]; Lu65 cells (MSLN MFI 13.13)): 15.8 nM
- IC50 ([1]; MFE-280 cells (MSLN MFI 45.1)): 165 nM
- IC50 ([1]; MKN1 cells (MSLN MFI 22.06)): 2.89 nM
- IC50 ([1]; MKN7 cells (MSLN MFI 18.48)): 10.4 nM
- IC50 ([1]; MKN45 cells (MSLN MFI 57.94)): 10.4 nM
- IC50 ([1]; MKN74 cells (MSLN MFI 7.73)): 9.62 nM
- IC50 ([1]; MOR/CPR cells (MSLN MFI 120.79)): 5.68 nM
- IC50 ([1]; NCI-H23 cells (MSLN MFI 4.42)): 17.3 nM
- IC50 [1, 4]: 6.37 nM
- IC50 ([1]; NCI-H322 cells (MSLN MFI 83.9)): 3.62 nM
- IC50 [1, 5]: 6.48 nM
- IC50 [1, 6]: 7.09 nM
- IC50 [1, 7]: 1.08 nM
- IC50 [1, 8]: 6.46 nM
- IC50 [1, 9]: 0.57 nM
- IC50 [1, 10]: 4.09 nM
- IC50 [1, 11]: 4.17 nM
- IC50 [1, 12]: 10.8 nM
- IC50 ([1]; NCI-N87 cells (MSLN MFI 125.8)): 0.1 nM
- IC50 ([1]; OVCAR3 A1 cells (MSLN MFI 220)): 0.005 nM
- IC50 ([1]; PC9 cells (MSLN MFI 11.24)): 15.2 nM
- IC50 ([1]; SNU216 cells (MSLN MFI 94.91)): 0.29 nM
- IC50 ([1]; SNU-478 cells (MSLN MFI 53.8)): 55.2 nM
- IC50 ([1]; SNU-1196 cells (MSLN MFI 40.2)): 6.49 nM
- IC50 ([1]; SUNE1 cells (MSLN MFI 212.4)): 0.27 nM
- IC50 ([1]; T-47D cells (MSLN MFI 4.4)): 22 nM
- IC50 ([1]; TFK1 cells (MSLN MFI 132.81)): 5.65 nM

B3: MORAb109_DAR2 (conjugate)
heavy: QVQLVESGGGVVQPGRSLRLSCAASGIDLSSYAMSWVRQAPGKGLEWIGVIDISGNRFYADWVKGRFTISRDNSKNTLYLQMSSLRAEDTAVYYCARVDSRAWGPFNLWGQGTLVTVSS[skipping human IgG1 constant region]
light: DYQMTQSPSSLSASVGDRVTITCQASQSIFSYLAWYQQKPGKAPKLLIYDASDLASGVPSRFSGSGSGTDFTLTISSLQCEDAATYYCQQGYTRSDVDNAFGGGTKVEIKRTVAAPSVFIFPPSDEQLKSGTASVVCLLNNFYPREAKVQWKVDNALQSGNSQESVTEQDSKDSTYSLSSTLTLSKADYEKHKVYACEVTHQGLSSPVTKSFNRGEC
modifications: non-natural residues
- % Max Killing (MSLN-negative cell lines; A431 cells (MSLN MFI 5.6)): 84.97%
- IC50 (MSLN-negative cell lines; A431 cells (MSLN MFI 5.6)): 109 nM
- % Max Killing (MSLN-negative cell lines; BxPC3 cells (MSLN MFI 15.59)): 90.62%
- IC50 (MSLN-negative cell lines; BxPC3 cells (MSLN MFI 15.59)): 86.2 nM
- % Max Killing (MSLN-negative cell lines; SKOV3 cells (MSLN MFI 20)): 58.41%
- IC50 (MSLN-negative cell lines; SKOV3 cells (MSLN MFI 20)): 214 nM
- % Max Killing (MSLN-positive cell lines; [4]): 56.22%
- % Max Killing (MSLN-positive cell lines; [13]): 73.49%
- % Max Killing (MSLN-positive cell lines; [14]): 98.39%
- IC50 (MSLN-positive cell lines; [4]): > 300 nM
- IC50 (MSLN-positive cell lines; [13]): 2.17 nM
- IC50 (MSLN-positive cell lines; [14]): 0.01 nM

B4: MORAb109_DAR6 (conjugate)
heavy: QVQLVESGGGVVQPGRSLRLSCAASGIDLSSYAMSWVRQAPGKGLEWIGVIDISGNRFYADWVKGRFTISRDNSKNTLYLQMSSLRAEDTAVYYCARVDSRAWGPFNLWGQGTLVTVSS[skipping human IgG1 constant region]
light: DYQMTQSPSSLSASVGDRVTITCQASQSIFSYLAWYQQKPGKAPKLLIYDASDLASGVPSRFSGSGSGTDFTLTISSLQCEDAATYYCQQGYTRSDVDNAFGGGTKVEIKRTVAAPSVFIFPPSDEQLKSGTASVVCLLNNFYPREAKVQWKVDNALQSGNSQESVTEQDSKDSTYSLSSTLTLSKADYEKHKVYACEVTHQGLSSPVTKSFNRGEC
- % Max Killing (MSLN-negative cell lines; A431 cells (MSLN MFI 5.6)): 90.76%
- IC50 (MSLN-negative cell lines; A431 cells (MSLN MFI 5.6)): 20.1 nM
- % Max Killing (MSLN-negative cell lines; BxPC3 cells (MSLN MFI 15.59)): 94.63%
- IC50 (MSLN-negative cell lines; BxPC3 cells (MSLN MFI 15.59)): 2.66 nM
- % Max Killing (MSLN-negative cell lines; SKOV3 cells (MSLN MFI 20)): 72.79%
- IC50 (MSLN-negative cell lines; SKOV3 cells (MSLN MFI 20)): 21.8 nM
- % Max Killing (MSLN-positive cell lines; [4]): 75.34%
- % Max Killing (MSLN-positive cell lines; [13]): 77.89%
- % Max Killing (MSLN-positive cell lines; [14]): 98.47%
- IC50 (MSLN-positive cell lines; [4]): 4.8 nM
- IC50 (MSLN-positive cell lines; [13]): 1.09 nM
- IC50 (MSLN-positive cell lines; [14]): 0.02 nM

Where two headings read alike, the source gives them in different places.
